Results taken from PubChem BioAssay AID1721 (National Center for Advancing Translational Sciences (NCATS), 2009).
Hit rate of the full screen: of about 290,000 compounds, about 1,100 (0.38%) were called active. Inconclusive results, whose numbers are uncertain, are shown with a selection of clear calls. Calls follow the shape of the dose curve; as a rule, active = well fitted inhibition curve with a large enough effect; inconclusive = small, poorly fitted or top-dose-only effect, or another doubt; inactive = no such curve, though single readings can be large or run the other way. Potencies beside an inconclusive call are fits to weak or partial responses and may not hold up.

target: Pyruvate kinase (Leishmania mexicana) (UniProt Q27686); assay: qHTS Assay for Inhibitors of Leishmania Mexicana Pyruvate Kinase (LmPK); conditions: purified LmPK, Kinase-Glo ATP luminescence, 1 h; series mostly up to 57.5 µM
Chain of UniProt Q27686 (Q27686 whole entry, looked up): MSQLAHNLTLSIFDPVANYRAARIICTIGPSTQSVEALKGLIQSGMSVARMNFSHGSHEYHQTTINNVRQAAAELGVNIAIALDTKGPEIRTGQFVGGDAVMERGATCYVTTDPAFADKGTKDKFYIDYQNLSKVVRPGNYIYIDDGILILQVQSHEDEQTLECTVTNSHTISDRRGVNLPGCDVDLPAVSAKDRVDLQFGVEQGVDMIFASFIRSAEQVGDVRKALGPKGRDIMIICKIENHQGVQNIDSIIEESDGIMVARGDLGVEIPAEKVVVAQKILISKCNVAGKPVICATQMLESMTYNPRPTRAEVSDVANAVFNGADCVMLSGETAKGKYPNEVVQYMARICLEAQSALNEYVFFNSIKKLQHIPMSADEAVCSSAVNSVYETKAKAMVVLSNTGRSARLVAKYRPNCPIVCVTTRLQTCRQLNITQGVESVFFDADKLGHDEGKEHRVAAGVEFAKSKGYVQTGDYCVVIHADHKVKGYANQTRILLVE
Method in brief: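 Purified LmPK (0.1 nM) converted ADP (0.1 mM) to ATP with PEP (0.5 mM) in imidazole buffer pH 7.2 with KCl and MgCl2, 1 h at room temperature. ATP was read by Kinase-Glo luminescence; data normalized to uninhibited and no-enzyme controls.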
Potency is read from the fitted curve at half-maximal effect; tags tell the direction and shape of the fitted curve.

| SMILES | Potency |
| --- | --- |
| COc1ccc(-n2nc3cc(C)c(N)c(Br)c3n2)cc1 | inconclusive: 20 µM [falling, partial curve] |
| CS(=O)(=O)N1CCN(c2ccccc2NC(=O)c2cc3ccccc3o2)CC1 | inactive |
| Cc1ccsc1/C=N/NC(=O)c1ccccn1 | inconclusive: 25.1 µM [falling, partial curve] |
| O=C(/C=C\Nc1ccc2c(c1)OCO2)c1ccc2c(c1)OCO2 | inconclusive: 17.8 µM [falling, partial curve] |
| COc1ccc(/C=C2\SC(c3ccc(C)cc3)=NC2=O)cc1OC | inconclusive: 39.8 µM [falling, single point] |
| CCn1cc(-c2n[nH]c(=S)n2-c2ccc(C)cc2Br)c(=O)c2ccc(C)nc21 | active: 7.94 µM |
| CCOC(=O)C1=C(C)N(c2ccc(C)cc2)C(=O)/C1=C\c1ccc(O)c(OC)c1 | inconclusive: 31.6 µM [falling, single point] |
| COc1ccc2c(=O)c(-c3ccccc3)coc2c1 | inconclusive: 15.8 µM [falling, partial curve] |
| COc1cccc(NC(=O)c2ccc3snnc3c2)c1 | inconclusive: 25.1 µM [falling, single point] |
| COc1nc(C)ccc1-c1noc(-c2ccco2)n1 | inconclusive: 12.6 µM [falling, partial curve] |
| Cc1ccn(C(=O)c2ccc(NC(=O)C3CC3)cc2)n1 | inactive |
| CCCNC(=O)c1ccc(-c2nc3ccccc3s2)s1 | inconclusive: 10 µM [falling, partial curve] |
| O=C(COC(=O)CCC(=O)c1ccc(F)cc1)Nc1ccc(F)cc1F | active: 2.24 µM |
| C[C@H](NC(=O)[C@H]1N2C(=O)c3ccccc3C2SC1(C)C)C(=O)N1CCN(C)CC1 (stereo partly specified) | inactive |
| CCc1nc2sc3c(O)cc(=O)[nH]c3c2cc1C | inconclusive: 22.4 µM [falling, single point] |
| O=C(/C=C/Nc1cccc(O)c1)c1ccccc1 | active: 14.1 µM |
| Cc1csc(NC(=O)c2cc3c(s2)-c2ccccc2OC3)n1 | inactive |
| CC(=O)c1ccc2c(c1)OCCOCCOc1ccccc1OCCOCCO2 | inactive |
| O=C(Nc1ccc(F)cc1)c1nsc(Cl)c1Cl | inconclusive: 11.2 µM [falling, partial curve] |
| Cc1occc1C(=O)N/N=C/c1ccc(N(C)C)cc1 | active: 10 µM |
| Cc1cccc(-c2noc(-c3ccoc3C)n2)c1 | inconclusive: 14.1 µM [falling, partial curve] |
| Cc1ccc(/C=C/c2nc3ccccc3s2)s1 | active: 28.2 µM |
| Cc1ccc(Cl)cc1NC1=C/C(=N\S(=O)(=O)c2cccs2)c2ccccc2C1=O | inconclusive: 31.6 µM [falling, single point] |
| CC(=O)OC1C(N2CCCCC2)c2c(ccc(/C=C/C(=O)N3CCCCC3)c2O)OC1(C)C (stereo unspecified) | inactive |
| CCCn1nnc(NC(=S)NC(=O)c2cccs2)n1 | inconclusive: 35.5 µM [falling, single point] |
| c1ccc2[nH]c(-c3nc4ccccc4[nH]3)nc2c1 | active: 8.91 µM |

| SMILES | Potency |
| --- | --- |
| COc1ccc(N=Nc2cc(C)ccc2O)cc1 | inconclusive: 14.1 µM [falling, partial curve] |
| N/C(=N\OC(=O)N1CCOCC1)c1ccc(Br)cc1 | inactive |
| COc1ccc(-c2n[nH]c(C)c2-c2cc(OC)ccc2O)cc1 | inconclusive: 28.2 µM [falling, partial curve] |
| Cc1ccc(C)c(S(=O)(=O)ON2C(=O)c3ccccc3C2=O)c1 | inconclusive: 20 µM [falling, partial curve] |
| COc1ccc(NC(=O)c2oc3ccccc3c2NC(=O)C(C)(C)C)cc1 | inactive |
| Cc1ccnc2nc(C(=O)Nc3nnc(-c4ccc(Cl)cc4)o3)nn12 | inconclusive: 15.8 µM [falling, partial curve] |
| Cc1cccc(-n2c(-c3csc4ccccc34)n[nH]c2=S)c1 | inconclusive: 17.8 µM [falling, partial curve] |
| Cc1occc1-c1nc(-c2ccncc2)no1 | inconclusive: 20 µM [falling, partial curve] |
| O=C(Nc1ccc2c(c1)CCC2)c1cccc(F)c1 | inconclusive: 20 µM [falling, partial curve] |
| COc1cccc(C(=O)Nc2ccc(NC(=O)c3ccco3)cn2)c1 | inconclusive: 28.2 µM [falling, single point] |
| CCc1ccc(-c2cc(C(=O)Nn3cnnc3)c3ccccc3n2)cc1 | inconclusive: 20 µM [falling, partial curve] |
| CN(C)c1ccc(/C=C/c2ccc3ccccc3n2)cc1 | inconclusive: 11.2 µM [falling, partial curve] |
| COc1ccc(C(=O)Nn2c(SCC(=O)NC3CCCCC3)nc3ccccc3c2=O)cc1 | inconclusive: 28.2 µM [falling, single point] |
| Cc1sc2nc(CN3CCN(c4ccc(O)cc4)CC3)[nH]c(=O)c2c1C | active: 14.1 µM |
| COc1ccc(/C=N/Nc2nc3ccccc3o2)cc1O | inconclusive: 25.1 µM [falling, partial curve] |
| C/C(=N\NC(=O)c1ccccc1O)c1cccs1 | active: 14.1 µM |
| O=C(Oc1ccccc1)c1ccc(COC(=O)c2cnccn2)cc1 | inconclusive: 28.2 µM [falling, partial curve] |
| O=S(=O)(CC(CN1CCCCC1)N1CCCCC1)c1ccc2ccccc2c1 (stereo unspecified) | inactive |
| CCOC(=O)c1sc2nc(-c3cccnc3)ccc2c1N | inactive |
| CN1CCN(C(=O)c2ccc(Cl)c(S(=O)(=O)N3CCCCCC3)c2)CC1 | inactive |
| Cc1ccc(NC(=O)CN2CCCCCC2)cc1Br | inactive |
| CC1CCN(c2ccc(-c3cccs3)nn2)CC1 | inconclusive: 28.2 µM [falling, partial curve, poor fit] |
| Cc1ccc2oc(=O)n(CCOc3ccccc3)c2c1 | inactive |
| CCn1cc(CN2CCCC(C(=O)Nc3cccc(-c4cc5ccccc5[nH]4)c3)C2)c(C)n1 (stereo unspecified) | inactive |
| COC(=O)c1ccncc1C(=O)Nc1ccc(Oc2ncc(C(F)(F)F)cc2Cl)cc1 | inconclusive: 39.8 µM [falling, single point] |
